# “And” between values parts separate entries of the source, which are not always exact repeats. Equal values may be shown once. About 64,000 (15%) of roughly 420,000 compounds were called active. Inconclusive means that the source gave no clear call. Such entries were picked first, then a sample of the others. Calls follow the shape of the dose curve; as a rule, active = well fitted inhibition curve with a large enough effect; inconclusive = small, poorly fitted or top-dose-only effect; inactive = flat fitted curve, though single readings scatter. Where the call is inconclusive, the potency comes from a doubtful curve fit.
# Experiment: qHTS for Inhibitors of human tyrosyl-DNA phosphodiesterase 1 (TDP1): qHTS in cells in absence of CPT; also: nearly all actives have a fitted effect of over 55% in size
# Details: DT40 Tdp1-/- hTDP1 cells, no CPT, ATP luminescence, 48 h; activity change, negative = growth inhibition: at 46.2 µM (top of the series) unless noted
# In short: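 Stably hTDP1-transfected Tdp1-null chicken DT40 cells were treated with library compounds minus camptothecin and grown for at least 48 hr at 37 °C, after which cellular ATP was quantified by luminescence.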
# % is scaled to controls: 0 for no effect and ±100 for the full control effect; potency is read from the fitted curve at half-maximal effect; tags tell the direction and shape of the fitted curve.
Compound,Potency,"activity change, negative = growth inhibition"
O=C(Nc1nc2cc3c(cc2s1)OCO3)c1ccco1,"inconclusive: 20.6 µM [inhibitor, partial curve]",–
CC(C(=O)Nc1ccc(C(F)(F)F)cc1)N(C)CC(=O)N1CCN(Cc2ccccc2)CC1 (stereo not drawn),"inconclusive: 20.6 µM [inhibitor, single point]",–
O=C(CN1C=NS(=O)(=O)c2ccccc21)Nc1ccc(Br)cc1,–,inconclusive: -32.2% [inhibitor]
CCC(C)(C)NC(=O)C(c1ccccc1F)N(Cc1ccco1)C(=O)Cn1nnc2ccccc21 (stereo not drawn),"inconclusive: 25.9 µM [inhibitor, single point]",–
OC(CN1CCN(c2ccc(C(F)(F)F)cn2)CC1)c1ccccc1 (stereo not drawn),"inconclusive: 29.1 µM [inhibitor, single point]",–
Nc1c(C(=O)NCc2ccco2)sc2nc(N3CCOCC3)c3c(c12)CCCC3,"inconclusive: 29.1 µM [inhibitor, single point]",–
O=[N+]([O-])c1ccc(-c2cn(-c3ccccc3)c(=S)[nH]2)cc1,"inconclusive: 7.31 µM [inhibitor, partial curve, poor fit]",–
Nc1ccccc1C(=O)Nc1ccc(Cl)cc1Cl,"inconclusive: 14.6 µM [inhibitor, partial curve]",–
CC(C)N(C(=O)c1ccc(-c2ccccc2F)cc1)C(C)C,"inconclusive: 14.6 µM [inhibitor, partial curve]",–
Cc1nn2c(NCCCN3CCOCC3)c3c(nc2c1-c1ccccc1)CCC3,"inconclusive: 29.1 µM [inhibitor, single point]",–
N#CC1=C(N)NC(SCc2ccc(Cl)cc2)=C(C#N)C12CCCCC2,"inconclusive: 20.6 µM [inhibitor, single point]",–
CC(C)(C)c1cc(C(=O)Nc2ccccc2)ccn1,"inconclusive: 29.1 µM [inhibitor, single point]",–
O=S(=O)(c1ccc(F)cc1)N1CCN=C1SCc1cccnc1,"inconclusive: 23.1 µM [inhibitor, single point]",–
O=C1N/C(=N/O)S/C1=C\c1ccccc1-n1cccn1,"inconclusive: 32.6 µM [inhibitor, single point]",–
COCCn1c(=O)[nH]c2cc(C(=O)NCCN3CCN(c4ccc(OC)cc4)CC3)ccc2c1=O,–,inconclusive: -33.4% [inhibitor]
COc1cccc(C#Cc2ccc3c(c2)O[C@@H](CN(C)C(=O)c2ccccn2)[C@@H](C)CN([C@H](C)CO)S3(=O)=O)c1,"inconclusive: 18.4 µM [inhibitor, single point]",–
C=CCOc1ccc(CNc2nccs2)cc1OCC,–,inconclusive: -33% [inhibitor]
COc1ccccc1Nc1ncc2c(n1)CCN(CC(C)C)C2,"inconclusive: 23.1 µM [inhibitor, single point]",–
Cc1ccc(-c2csc3ncnc(N4CCN(C)CC4)c23)cc1C,active: 11.6 µM,–
COCCOC(=O)c1c(C)oc2ccc(NS(=O)(=O)c3ccc(C)cc3)cc12,active: 25.9 µM,–
COc1ccc(CN2CCc3nnc(CCc4ccccc4)n3CC2)c(OC)c1C,"inconclusive: 18.4 µM [inhibitor, single point]",–
Cc1ccc(CCNC(=O)CS(=O)Cc2nc(-c3cccs3)oc2C)cc1 (stereo not drawn),"inconclusive: 29.1 µM [inhibitor, single point]",–
CCCS(=O)(=O)NC(=O)C1(C)CCCN(C(=O)c2ccc3c(c2)OCO3)C1 (stereo not drawn),–,inactive: -1%

Compound,Potency,"activity change, negative = growth inhibition"
O=C(Nc1ccc2c(c1)CN(Cc1ccc(CO)o1)CC2)c1ccc(C(F)(F)F)cc1,"inconclusive: 23.1 µM [inhibitor, single point]",–
COc1ccccc1CNC(=O)CC1N=C2c3ccccc3N=C(SCC(=O)Nc3ccc(F)cc3)N2C1=O (stereo not drawn),"inconclusive: 29.1 µM [inhibitor, single point]",–
CC1(C2CC2)NC(=O)N(CC(=O)Nc2ccccc2C#N)C1=O (stereo not drawn),–,inactive: 1.19%
COc1cccc(CNC(=O)Cc2csc(Nc3nc(=S)[nH]c4ccccc34)n2)c1,"inconclusive: 13 µM [inhibitor, single point]",–
CCCCCN(C(=O)CCC(=O)OCc1ccccc1Cl)c1c(N)n(CCCC)c(=O)[nH]c1=O,–,inactive: -18.2%
CC(C)(C)OC(=O)C[C@H]1C/C=C\C[C@@H](CC(=O)NCCO)C(=O)N2CCC[C@H]2COC1=O,–,inactive: -2.74%
COc1cccc(N2C(=O)CC(NNC(=O)c3cccs3)C2=O)c1 (stereo not drawn),–,inactive: -6.27%
O=C(Nc1c(C(=O)N2CCOCC2)cnn1-c1ccccc1Cl)c1ccco1,–,inactive: -1.42%
COc1ccccc1NC(=O)N(Cc1ccco1)Cc1cc2cc(C)cc(C)c2[nH]c1=O,active: 14.6 µM,–
COc1ccccc1NS(=O)(=O)c1cccc(NC(=O)Nc2ccccc2)c1,active: 14.6 µM,–
Oc1cccc(-c2nnc(-c3cccc(O)c3)nn2)c1,"inconclusive: 10.3 µM [inhibitor, partial curve]",–
O=C(Cn1nc(-c2ccccc2)ccc1=O)NCc1ccc(F)cc1Cl,–,inactive: -29.3%
COc1ccc(S(=O)(=O)Nc2cccc(-c3ccc(N4CCOCC4)nn3)c2)cc1F,"inconclusive: 29.1 µM [inhibitor, single point]",–
O=C(CCc1ccc(S(=O)(=O)N2CCOCC2)cc1)Nc1ccc(F)cc1[N+](=O)[O-],–,inactive: -28.1%
Cc1nc2scc(C)n2c(=O)c1S(=O)(=O)NCc1ccccc1Cl,inactive,–
O=C(Cn1nnc(-c2ccccc2)n1)N1CCN(S(=O)(=O)c2ccc(Cl)cc2)CC1,–,inactive: -14.2%
Cc1ccc(CS(=O)(=O)c2cn(CC(=O)N(C)c3ccccc3)c3ccccc23)cc1,"inconclusive: 25.9 µM [inhibitor, partial curve, poor fit]",–
CC1=C(C(=O)OC2CCCC2)C(c2ccc(F)cc2F)CC(=O)N1 (stereo not drawn),"inconclusive: 25.9 µM [inhibitor, single point]",–
CC(=O)Nc1ccc(NC(=O)CCCc2nc(-c3ccc(C(C)(C)C)cc3)no2)cc1,"inconclusive: 18.4 µM [inhibitor, single point]",–
CC(C)=CC1C(C(=O)NCCc2ccccc2)C1(C)C (stereo not drawn),"inconclusive: 16.4 µM [inhibitor, single point]",–
O=C1C2C3c4ccccc4C(c4ccccc43)C2C(=O)N1Cc1ccccn1 (stereo not drawn),active: 23.1 µM,–
COc1cccc(C(C(=O)NC2CCCCC2)N(C(=O)c2ccco2)c2ccccc2OC)c1 (stereo not drawn),active: 11.6 µM,–
COc1ccc(CNC(=S)Nc2ccc3nc(N4CCN(C)CC4)cc(C)c3c2)cc1,"inconclusive: 29.1 µM [inhibitor, single point]",–

Compound,Potency,"activity change, negative = growth inhibition"
Cc1ccc2c(CN3CC(C)CC(C)C3)cc(=O)oc2c1 (stereo not drawn),"inconclusive: 29.1 µM [inhibitor, single point]",–
FC(F)(F)c1cc(-c2cccs2)nc(N2CCOCC2)n1,"inconclusive: 29.1 µM [inhibitor, partial curve, poor fit]",–
CC1CCCC/C1=N\Nc1ccc(S(N)(=O)=O)cc1[N+](=O)[O-] (stereo not drawn),"inconclusive: 23.1 µM [inhibitor, single point]",–
CC(=O)c1ccc(N2C(=O)N(Cc3cccc(C(F)(F)F)c3)c3ccccc3S2(=O)=O)cc1,active: 14.6 µM,–
O=C(NC1CCCCCC1)C1c2ccccc2C(=O)N1Cc1cccs1 (stereo not drawn),"inconclusive: 29.1 µM [inhibitor, single point]",–
Cc1ccc(N=Cc2cccc(O)c2O)c(C)c1,"inconclusive: 35.5 µM [inhibitor, single point]",–
COc1ccc(NC(=O)C[C@H]2C(=O)N(c3ccccc3)C[C@@H]2Cc2ccccc2)cc1,"inconclusive: 25.9 µM [inhibitor, partial curve, poor fit]",–
O=S(=O)(Nc1ccc(-c2csc(-c3ccccc3)n2)cc1)c1ccc(F)cc1,"inconclusive: 16.4 µM [inhibitor, single point]",–
Cn1c(=O)c2[nH]c(CCC3CCCC3)nc2n(C)c1=O,"inconclusive: 13 µM [inhibitor, partial curve]",–
O=C1CSC(=Nc2cccc(Cl)c2Cl)N1Cc1cccnc1,"inconclusive: 29.1 µM [inhibitor, single point]",–
COc1ccc(N(Cc2cccs2)C(=O)c2ccccc2C)cc1,active: 13 µM,–
Cn1cncc1C#Cc1c(C=O)[nH]c2ccccc12,active: 10.3 µM,–
CSc1nc2nc(-c3ccccc3)cc(=O)n2[nH]1,"inconclusive: 32.6 µM [inhibitor, partial curve, poor fit]",–
Cc1ccc(NC(=O)c2cc(C)nn2-c2ccccc2)cc1,"inconclusive: 23.1 µM [inhibitor, single point] and inconclusive: 10.3 µM [inhibitor, partial curve]",–
CCN(CC)c1ccc(N=Cc2cc(Br)ccc2O)cc1,"inconclusive: 25.9 µM [inhibitor, single point]",–
O=C(NC(=S)N(Cc1ccccc1)Cc1ccccc1)C1CCCCC1,active: 23.1 µM,–
CCOc1cc(C(=O)Nc2ccc3oc(-c4ccc(F)cc4Cl)nc3c2)cc(OCC)c1OCC,"inconclusive: 29.1 µM [inhibitor, single point]",–
Cc1ccc(NC(=O)c2ncn(CCCNCc3ccc4c(c3)OCO4)n2)cc1C,"inconclusive: 25.9 µM [inhibitor, single point]",–
CC(OC(=O)c1nc(Cl)ccc1Cl)C(=O)c1ccccc1 (stereo not drawn),–,inactive: -1.25%
Cn1c(SCCOc2ccccc2Cl)nnc1-c1cccs1,–,inactive: -2.66%
CCCCNC(=O)CCC(=O)NNc1nc2ccccc2c2nc(-c3ccccc3)nn12,active: 23.1 µM,–
O=C(c1ccc2c(c1)OCCO2)N1CCN(Cc2c(F)cccc2Cl)CC1,"inconclusive: 9.2 µM [inhibitor, single point]",–
